Reference: publication PMC4336329 (PLoS ONE, 2015)
About 2,200 (0.71%) of roughly 310,000 compounds showed an effect of 50% or more. Effects have a minus sign here. Some of the results follow.

What follows are molecules tested against human ether-à-go-go-related gene (hERG) potassium channel (human, UniProt Q12809) (assay: primary screen, population patch clamp on CHO cells stably expressing hERG).
Sequence of human ether-à-go-go-related gene (hERG) potassium channel (Q12809 whole entry, looked up): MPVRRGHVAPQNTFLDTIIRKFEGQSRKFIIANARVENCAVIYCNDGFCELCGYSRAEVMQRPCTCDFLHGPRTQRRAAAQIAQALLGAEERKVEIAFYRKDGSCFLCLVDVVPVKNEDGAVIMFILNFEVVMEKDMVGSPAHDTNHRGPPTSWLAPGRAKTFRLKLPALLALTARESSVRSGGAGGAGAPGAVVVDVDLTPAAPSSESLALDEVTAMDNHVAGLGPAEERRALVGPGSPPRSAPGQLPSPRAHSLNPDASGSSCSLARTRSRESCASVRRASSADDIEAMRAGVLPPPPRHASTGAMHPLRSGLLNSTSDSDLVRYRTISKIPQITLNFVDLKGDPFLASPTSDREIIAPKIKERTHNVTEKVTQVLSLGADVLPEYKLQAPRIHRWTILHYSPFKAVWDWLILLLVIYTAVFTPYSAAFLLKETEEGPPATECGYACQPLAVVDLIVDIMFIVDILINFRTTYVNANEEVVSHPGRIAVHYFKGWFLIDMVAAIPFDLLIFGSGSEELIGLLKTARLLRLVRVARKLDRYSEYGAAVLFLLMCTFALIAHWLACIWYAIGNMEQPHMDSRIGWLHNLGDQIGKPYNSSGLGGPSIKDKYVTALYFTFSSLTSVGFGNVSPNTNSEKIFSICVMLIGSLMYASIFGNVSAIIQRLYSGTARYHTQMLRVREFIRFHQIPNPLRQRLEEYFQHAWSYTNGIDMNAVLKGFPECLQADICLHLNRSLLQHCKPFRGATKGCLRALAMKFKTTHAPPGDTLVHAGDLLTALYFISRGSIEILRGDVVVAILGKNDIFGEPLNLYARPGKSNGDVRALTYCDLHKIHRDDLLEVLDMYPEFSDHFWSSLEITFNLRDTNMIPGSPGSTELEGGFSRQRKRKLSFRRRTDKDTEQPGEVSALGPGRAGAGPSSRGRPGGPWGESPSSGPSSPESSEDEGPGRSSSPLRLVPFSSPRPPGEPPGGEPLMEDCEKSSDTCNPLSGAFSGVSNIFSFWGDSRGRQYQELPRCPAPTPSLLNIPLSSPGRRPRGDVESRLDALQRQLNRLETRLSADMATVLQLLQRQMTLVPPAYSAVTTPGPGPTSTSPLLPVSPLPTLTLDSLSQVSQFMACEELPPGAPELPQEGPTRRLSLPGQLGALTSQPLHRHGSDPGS

SMILES | hERG current change (%, negative = inhibition) at 1uM
CN1CCC(=NNC(=O)CN(c2ccc([N+](=O)[O-])cc2)S(=O)(=O)c2ccccc2)CC1 | 4.81%
Cc1cc(C)n2nc(SCC(=O)c3cccs3)nc2n1 | 10.8%
CCCn1nc(Oc2nc(N(C)C)nc(N(C)C)n2)ccc1=O | 11.5%
CN(C)S(=O)(=O)c1ccc(Cl)c(NC(=O)COC(=O)CCSc2ccccc2)c1 | 10.2%
COc1ccccc1CCc1nnc(CCC(=O)NC(C)Cn2nc(C)cc2C)o1 (centres unmarked) | 5.63%
Cc1ccsc1-c1n[nH]c(=S)n1C1CCCCC1 | 9.99%
Cc1ccc(NC(=O)CCC(=O)N/N=C/c2ccc([N+](=O)[O-])o2)cc1C | 0.171%
O=C(Nc1nc(-c2ccccn2)cs1)C1CCCC1 | 5.96%
CCN(CC)C(=O)CSc1ncnc2c(-c3ccc(OC)cc3)nsc12 | 15.7%
CC1CCCCN1CCn1c(=S)[nH]c2cc3c(cc2c1=O)OCO3 (centres unmarked) | 2.76%
Cc1ccc(NC(=O)C(C)N2C(=O)c3ccccc3C2=O)c(C)c1 (centres unmarked) | 9.42%
COc1cccc(OCc2cc(C(=O)N(C)C3CC(C)(C)NC(C)(C)C3)no2)c1 | 3.5%
O=C(CC1CC2CCC1C2)N1CCN(S(=O)(=O)c2ccccc2[N+](=O)[O-])CC1 (centres unmarked) | 7.9%
O=C(CS(=O)(=O)c1ccccc1)N1CCCCC1 | 5.96%
O=C(O)Cn1c(-c2cscn2)nc2ccccc21 | 10.7%
COC(=O)C1=C(CSc2nc3ccccc3s2)NC(=O)NC1c1ccc(F)cc1 (centres unmarked) | 2.16%
COc1ccc(N(CC(=O)N/N=C(\C)c2ccccc2)S(=O)(=O)c2ccccc2)cc1 | 15.5%
O=C(O)c1ccc(-c2ccccc2C(F)(F)F)o1 | 9.74%
COc1ccc(/C=C/C(=O)Nc2cc(=O)n(C)c(=O)n2C)cc1 | 0.532%
O=C(NC1(C(F)(F)F)C(=O)Nc2c1c(=O)[nH]c(=O)n2Cc1ccccc1)c1ccc(Cl)cc1Cl (centres unmarked) | 15.8%
COc1ccc(C)cc1S(=O)(=O)N(CC(=O)Nc1ccc2c(c1)OCCO2)Cc1ccccc1 | 2.75%
CC(NC(=O)CSc1nc(=O)cc(N)n1-c1ccccc1)c1ccccc1 (centres unmarked) | 7.33%

SMILES | hERG current change (%, negative = inhibition) at 1uM
CCOC(=O)c1c(NC(=O)/C=C/C(=O)O)sc(C)c1-c1ccc(C(C)(C)C)cc1 | 10.3%
CCS(=O)(=O)c1nc(S(=O)(=O)c2ccc(Cl)cc2)c(NCCOC)s1 | 15.3%
CC(C)(C)C1CCC(=NNC(=O)C(=O)NCc2cccnc2)CC1 (centres unmarked) | 6.09%
O=C(NCc1ccc2c(c1)OCO2)c1ccc2c(c1)N(Cc1c(F)cccc1Cl)C(=O)CS2 | 14.6%
COc1ccc(NC(=O)c2cnc(SC)nc2)cc1 | 9.84%
CCC(=O)Nc1nnc(-c2ccc(OC)cc2)o1 | 3.48%
CC(=O)N1CCN=C1SCc1cccc(C)c1 | 7.96%
COc1cc(NC(=O)COC(=O)CCCC2=NS(=O)(=O)c3ccccc3N2)cc(OC)c1 | 13%
C=CCN1C=C2C(=O)C(C)(OC(=O)CC)C(=O)C=C2C=C1CCCC (centres unmarked) | 11.7%
COC(=O)c1cc2c(s1)-c1ccccc1OC2 | 5.96%
COc1cc(OC)cc(C(=O)Nc2nnc(-c3cccnc3)o2)c1 | 6.04%
Cc1cc(NC(=O)CSc2nc(C(C)C)nc3sc4c(c23)CCC(C)C4)no1 (centres unmarked) | 9.13%
CC1CCCN(C(=O)c2ccc3nc[nH]c3c2)C1 (centres unmarked) | 8.91%
Cc1ccc(Nc2ncnc3c2cnn3C)c(C)c1 | 13.5%
COc1cccc(-c2c(-c3cc(OC)cc(OC)c3)n(C)c3ccc(-c4ccc5[nH]ccc5c4)cc23)c1 | 11.8%
COc1ccc([N+](=O)[O-])cc1-c1[nH]c(-c2ccc(C(=O)O)cc2)nc1-c1ccccc1 | 4.62%
N#CCC(=O)Nn1c(=S)[nH]c2ccccc2c1=O | 14.5%
CCN(c1ccccc1)S(=O)(=O)c1ccc(OC)c(NC(=O)Cc2ccc(OC)c(OC)c2)c1 | 4.52%
Cc1cccc(NC(=O)N(Cc2cc3cc(C)cc(C)c3[nH]c2=O)CC2COCCO2)c1 (centres unmarked) | 1.25%
COC(=O)c1ccc(N=C(c2ccccc2)c2c(O)n(C)c(=O)n(C)c2=O)cc1 | 11.6%
Cc1nn(-c2ccccc2)c(Cl)c1C(=O)N1CCN(c2ncnc3c2cnn3-c2ccccc2)CC1 | 13.3%
COCCSc1nnc(NC(=O)C2CC(=O)N(CCc3ccc(F)cc3)C2)s1 (centres unmarked) | 15.9%
